{"source": "the supplement of paper PMC11417369", "note": "± gives the standard deviation of the averaged measurements. The list shows a part of the results.", "data": [{"tested_on": "PfAP2-G AP2 domain (GST-tagged)", "assay": "gcPBM binding intensity (ln(normalized median fluorescence intensity)); higher = stronger DNA binding", "summary_of_the_method": "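GST-tagged P. falciparum DNA-binding domains produced in E. coli were incubated for 1 h on an Agilent 4 × 180k array of primer-extended double-stranded 36-bp intergenic genomic probes with negative controls. Binding intensity is the highest Masliner-normalised natural-log median intensity across replicate spots of either probe orientation, with bound protein detected by Alexa488 anti-GST antibody at 488 nm.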", "values": [{"sequence": "CCTTTTTCTAATGGATGTACTTATTATATACATTAT [XGTACX_site281]", "gcPBM binding intensity (ln)": "11.2 ± 0.69"}, {"sequence": "AAGAAAAGTAAATATGCATGTAGGGTAGGTTATTTT [TGCATGCA_site46]", "gcPBM binding intensity (ln)": "10 ± 0.071"}, {"sequence": "ATATTTTTTCTGAACGGTACAGAATTTTTCAAGATT [XGTACX_site484]", "gcPBM binding intensity (ln)": "10.5 ± 0.33"}, {"sequence": "TATATATATCTGTATACACACATATGTATGTTATGT [CACACA_site6090]", "gcPBM binding intensity (ln)": "10.1 ± 0.13"}, {"sequence": "AAAATAAAAAGAAATAAATTAACAGTAAGGAAAAAA [CACACA_negctrl_site1105]", "gcPBM binding intensity (ln)": "9.85 ± 0.042"}, {"sequence": "TGAATAATCAATAGTACACACATATAAATATATATA [CACACA_site2813]", "gcPBM binding intensity (ln)": "11.2 ± 0.88"}, {"sequence": "AAATTTATATATAGTTGTACAAAAATATGTTTCGTA [XGTACX_site4801]", "gcPBM binding intensity (ln)": "11.2 ± 0.57"}, {"sequence": "TTATTTTATCACACATGTACATATGTTAATTTTTTT [XGTACX_site5598]", "gcPBM binding intensity (ln)": "11 ± 0.42"}, {"sequence": "AACATTTATATTTAAGTGCAGATGCTGTAATTTAGA", "gcPBM binding intensity (ln)": "9.805 ± 0.007"}, {"sequence": "TTTTTATAACAAAGTATTTAAATAATTTATACTAAT [TGCATGCA_negctrl_site104]", "gcPBM binding intensity (ln)": "9.97 ± 0.25"}, {"sequence": "GAACAAATTACAAGTTGTACTTTATGTAAATTATTA [XGTACX_site5304]", "gcPBM binding intensity (ln)": "11.2 ± 0.73"}, {"sequence": "ATGCGTTCATACATACATACATACATACAATTTGTA [TGCATGCA_negctrl_site50]", "gcPBM binding intensity (ln)": "10.3 ± 0.23"}, {"sequence": "TTTATTTTTATTTTTGTGCACGGGATTAAATAAAAG [GTGCAC_site9842]", "gcPBM binding intensity (ln)": "10.7 ± 0.63"}, {"sequence": "TTTTTTTTTTTTTTTCTTTTTTATTCTCACAAAAAA [CACACA_negctrl_site1790]", "gcPBM binding intensity (ln)": "9.63 ± 0.32"}, {"sequence": "TTTTGAATTAAACAAGCATGCTTTATTTACTTCTTA [TGCATGCA_site289]", "gcPBM binding intensity (ln)": "9.49 ± 0.27"}, {"sequence": "TAATTCATCCTATGCACACACAATACCAAAATGTGC [CACACA_site4269]", "gcPBM binding intensity (ln)": "10.3 ± 0.23"}, {"sequence": "TAATTTATTAATAATTGTACAGATATTATACTTAAA [XGTACX_site8947]", "gcPBM binding intensity (ln)": "10.8 ± 0.55"}, {"sequence": "TGCTCATGAGGTCAGAGTACAAAATAGTAAATGTAT [XGTACX_site2973]", "gcPBM binding intensity (ln)": "11.1 ± 0.61"}, {"sequence": "AATAAGCATAGACACACACACAAAAAAAAAAAAAAA [CACACA_site6476]", "gcPBM binding intensity (ln)": "10 ± 0.45"}, {"sequence": "TACACAAACAGACACACACACACACGCGCACAAAAA [CACACA_site7192]", "gcPBM binding intensity (ln)": "10.6 ± 0.38"}, {"sequence": "ATTACATGTATACATGTCAACACGTATAAAAAAAAA [CACACA_negctrl_site1154]", "gcPBM binding intensity (ln)": "10.4 ± 0.24"}, {"sequence": "ATTATAAATATATTTTGTACTTAAAAGGAAAAAAAA [XGTACX_site55]", "gcPBM binding intensity (ln)": "11 ± 0.67"}, {"sequence": "TTAACATCTTCGTTGACACACAAAAAAAAAAATAAT [CACACA_site1819]", "gcPBM binding intensity (ln)": "10.4 ± 0.42"}, {"sequence": "GATTATCTTCAAGTATGTACACACTATATATAATAA [XGTACX_site5108]", "gcPBM binding intensity (ln)": "11.4 ± 0.94"}, {"sequence": "AATAAATAGAGGAAATGTACATATAAAAATAATTTC [XGTACX_site2454]", "gcPBM binding intensity (ln)": "11 ± 0.3"}, {"sequence": "GCACGAAACAATGTATATATATATATATATATATAT [GTGCAC_negctrl_site412]", "gcPBM binding intensity (ln)": "10 ± 0.57"}, {"sequence": "TTCTTTATGGAAGTGTAAAAAAAGAAATACTTTTTT [CACACA_negctrl_site915]", "gcPBM binding intensity (ln)": "10.2 ± 0.28"}, {"sequence": "TATTTTTATATATAATCACACATTGGAATGTTCTAA [CACACA_site5540]", "gcPBM binding intensity (ln)": "9.775 ± 0.021"}, {"sequence": "ATAAATGATAGTAAAAGTACACAAAATGTTTTAAAA [XGTACX_site1623]", "gcPBM binding intensity (ln)": "11.5 ± 0.88"}, {"sequence": "ATATAACAGAAACACACACACATATATATATATTAT [CACACA_site4140]", "gcPBM binding intensity (ln)": "9.9 ± 0.12"}, {"sequence": "AATATAAGATTATTATGTACATAATAAATATGTATT [XGTACX_site4773]", "gcPBM binding intensity (ln)": "11 ± 0.42"}, {"sequence": "ATATAAGTATAATTATGTACTTATACTTATATAAAT [XGTACX_site5585]", "gcPBM binding intensity (ln)": "11.2 ± 0.71"}, {"sequence": "ATATAATATCTGTATACACACATATTATATAATATT [CACACA_site5940]", "gcPBM binding intensity (ln)": "9.99 ± 0.057"}, {"sequence": "TTTGATTTTAATGTGTGTACACATTTATTTATATAA [XGTACX_site4806]", "gcPBM binding intensity (ln)": "11.8 ± 1.2"}, {"sequence": "GATTTATATTTTAAAAGTACAAGTTAAAATAAAAGT [XGTACX_site7059]", "gcPBM binding intensity (ln)": "11.5 ± 0.89"}, {"sequence": "TTTTATTTAGGAGGTGCATGTAATACGGAACATAAT [TGCATGCA_site827]", "gcPBM binding intensity (ln)": "10.5 ± 0.47"}, {"sequence": "CCATAACTCCTATGCACACATAAATATTACAGAGAT [CACACA_site5984]", "gcPBM binding intensity (ln)": "10.2 ± 0.16"}, {"sequence": "TTTTTTTTTTTGGTTACACACATTTGTATATTCTCA [CACACA_site134]", "gcPBM binding intensity (ln)": "10.3 ± 0.18"}, {"sequence": "CATATTAATACAGAATGTACGGATAACAAACTGTTT [XGTACX_site7935]", "gcPBM binding intensity (ln)": "10.9 ± 0.58"}, {"sequence": "GGTCATCATCGGTATTGTACAAAAATGTGAAAATTA [XGTACX_site639]", "gcPBM binding intensity (ln)": "11 ± 0.62"}, {"sequence": "ATAATTATATGATGAGTGCACAATAAAAATATCGTT [GTGCAC_site9920]", "gcPBM binding intensity (ln)": "10.3 ± 0.2"}, {"sequence": "TTTATTTATTTATATTTTTTTATATAATTTATATAT [GTGCAC_negctrl_site301]", "gcPBM binding intensity (ln)": "9.68 ± 0.12"}, {"sequence": "AAAGGTATATATGTGTGTACATATATATATATATAT [XGTACX_site5629]", "gcPBM binding intensity (ln)": "11.2 ± 0.72"}, {"sequence": "CATATAATAAATAATACACACATATTGGAAATATAT [CACACA_site3212]", "gcPBM binding intensity (ln)": "9.98 ± 0.057"}]}]}
